# Test results published in the supplement of paper PMC3334620.
# In all, about 33,000 sequences were measured (“E-score (-0.5 to 0.5)”: median about -0.013, highest 2% from about 0.3 on). Some of the results follow.
# Target: T1, Msn1 (UniProt P22148)
# T1 sequence: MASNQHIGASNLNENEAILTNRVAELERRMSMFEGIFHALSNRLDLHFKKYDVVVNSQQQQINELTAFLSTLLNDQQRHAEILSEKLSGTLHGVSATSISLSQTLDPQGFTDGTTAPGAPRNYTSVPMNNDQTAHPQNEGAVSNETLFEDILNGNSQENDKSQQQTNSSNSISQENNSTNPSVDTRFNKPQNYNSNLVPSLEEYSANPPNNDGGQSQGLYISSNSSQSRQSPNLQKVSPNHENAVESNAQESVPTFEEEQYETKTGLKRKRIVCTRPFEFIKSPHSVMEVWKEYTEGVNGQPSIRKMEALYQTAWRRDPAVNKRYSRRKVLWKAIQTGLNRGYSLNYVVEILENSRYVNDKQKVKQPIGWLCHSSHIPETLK
# Assay: PBM E-score (8-mer binding enrichment) (E-score (-0.5 to 0.5)); higher = stronger / more preferred TF binding; most listed sequences are background and not binding sites
# Details: protein concentration: 200 nM; construct: GST-full length
# Procedure, shortened: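 PURExpress in vitro transcription/translation supplied GST-tagged yeast transcription factors, either full-length or DNA-binding domain. Applied at about 100-200 nM to universal all-10-mer Agilent arrays double-stranded by primer extension, the bound protein was detected with fluorescent anti-GST. E-scores, modified Wilcoxon-Mann-Whitney statistics, were given by the Universal PBM Analysis Suite to ungapped eight-base words pooled with their reverse complements after masliner normalisation.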
row,Sequence,PBM E-score
1,AGTGACGC,-0.114
2,AATATGAT,0.0991
3,GTTCCTGA,-0.147
4,CGCTTTTA,0.168
5,ATCACGGC,0.0306
6,AGTGCAGC,-0.0149
7,ACGATCGA,0.118
8,AACCACTA,-0.0982
9,GCTTAACC,-0.0324
10,GAGTAAGA,0.115
11,GGACGGGA,-0.193
12,CGCAGTAG,-0.21
13,CATGAGCC,-0.0374
14,AATCACTA,0.0532
15,ATTGGGGA,-0.137
16,TGCAGCCA,-0.0919
17,CTAGTGAC,0.0959
18,AGCCTTCA,-0.118
19,CATTGCAA,-0.0386
20,TAAAGCAA,0.141
21,CTCGCCCA,-0.0117
22,AGGACGAA,0.256
23,AATGCCGT,0.0976
24,CGCATCGA,0.0795
25,AACACCTC,-0.0786

row,Sequence,PBM E-score
1,TATCACCA,-0.0358
2,AGCCAGCT,-0.0847
3,GGTACAAA,0.456
4,CTCGATGA,-0.0098
5,AATTGCCA,-0.0362
6,CCATAGCG,-0.127
7,ATTGTCCG,0.468
8,AAGGGCTG,-0.254
9,CCGATATC,0.0924
10,GAAGATGC,-0.128
11,AATACAAA,0.228
12,ACGCGGTG,-0.197
13,CAGACAGG,0.0581
14,CCTATACC,-0.176
15,AGATTGGA,0.0703
16,GGCGATCA,-0.221
17,CGCCAAAC,-0.146
18,GAACCTAA,-0.172
19,GGAGGGAA,-0.248
20,GGGCTCGA,-0.324
21,AAAATTGG,0.00283
22,CCGTTGTC,0.304
23,ACGGCTAT,-0.0474
24,CACGGCGC,0.0716
25,CTGGTTGC,0.0297

row,Sequence,PBM E-score
1,CAGTAGAC,0.168
2,GAATTAAC,0.0536
3,GGTGGTTA,-0.103
4,AACACAGA,-0.0167
5,CCCCCGAA,-0.137
6,GAATCTAA,-0.0421
7,CATCCTAC,-0.227
8,AGCCACTG,-0.0328
9,AAAGGAAT,0.0833
10,AGCTGGCC,-0.0908
11,GCGATTTA,-0.0258
12,GATAGGGC,-0.237
13,GGTTGCAC,-0.195
14,GAGCCTCA,-0.291
15,GCCGGAAA,0.0973
16,CTAAGGAG,-0.247
17,CCCGTATC,-0.0306
18,TAGTCACA,0.0343
19,GCTCCAGC,-0.0883
20,GGGAGCAA,-0.203
21,AGTCGTAA,0.0807
22,GCCACGGC,-0.0514
23,GAAGCTCC,-0.11
24,CATACAGC,-0.124
25,CCCAAGCA,-0.0213

row,Sequence,PBM E-score
1,GGGTACAC,0.0109
2,GCGCGTGA,-0.0856
3,AAAACCAC,0.211
4,GACGCTTA,-0.142
5,ACACTAGG,0.0326
6,CTCCATAC,-0.119
7,GGCACGGA,0.0552
8,CTCTTGTA,0.035
9,CCTCTCTA,-0.264
10,GGATAATA,0.124
11,GTCGCAAC,0.0671
12,CTAACATA,0.0457
13,AAAGATTC,0.173
14,AAGGTGAC,0.249
15,GTCCTTTA,0.225
16,CGCGCCAG,-0.00508
17,GGCGGGAC,0.0593
18,ACCTCGTC,-0.0304
19,ACGTAGAT,0.0466
20,AGGACCAC,-0.124
21,GATTCCAC,0.1
22,GGCTTCGA,-0.0792
23,CACAAAGA,0.164
24,GGTGGAAA,-0.0856
25,GTGCCTCA,-0.167

row,Sequence,PBM E-score
1,AAGGACAC,0.449
2,ACTGTCGC,-0.134
3,GGTAAAAA,0.0992
4,TCTGATAA,0.222
5,TATCCAAA,0.186
6,GCTAAAGA,0.133
7,CACGCGGC,-0.0237
8,CTCTGTTC,0.016
9,CTAGAAAA,0.159
10,CGATGGGC,-0.205
11,CAATACTC,0.153
12,ATGAGCTC,-0.05
13,AAGACACA,0.169
14,GTCCCGAA,0.22
15,ACCGGGTA,-0.109
16,CAGCATGA,-0.0698
17,AAATATCT,0.134
18,ATATCAAC,0.0182
19,ATATATAT,0.255
20,GCTCACAA,0.00698
21,CGTCCAAC,0.0843
22,CTAGGCTC,-0.18
23,ACCGCGTG,-0.118
24,CCATCATC,0.0399
25,AACGCTAG,-0.0987

row,Sequence,PBM E-score
1,ACGTCTCT,0.156
2,CGATGTCA,0.0775
3,TCCAGGCA,0.0282
4,AGAACGAG,0.043
5,CTTTTAGA,0.0261
6,CCAAGTAA,0.128
7,GTGCCCAC,-0.215
8,CCCCCGCC,-0.406
9,GACACAGC,0.249
10,GACGAGTA,0.0768
11,AGAGTTAT,-0.0142
12,GCTTTGCA,-0.233
13,CTGGCGCA,-0.226
14,CTTACGGC,-0.135
15,AACCTTTA,-0.194
16,CCGTCCTC,-0.103
17,AAACCGGA,0.14
18,AACACCCC,-0.112
19,CACCCGCC,-0.135
20,TAGGAGGA,-0.172
21,CCCTGGCA,-0.292
22,ACCTCAAA,0.00339
23,GGAACTAC,-0.152
24,CGGGAAGC,-0.135
25,GAAAAACA,0.0496

row,Sequence,PBM E-score
1,AGGGTGGA,-0.252
2,ACTTACGA,0.212
3,CAGTGTAG,-0.0323
4,ATAACCTC,0.15
5,ATAGTATG,0.263
6,ATCCCCAA,-0.044
7,ATAGAAAT,0.205
8,CGACTATC,-0.0263
9,CCCTCCGA,-0.0124
10,AGTGATTA,0.128
11,AATCTGAC,0.127
12,CATACTTA,0.0828
13,GGCTCTCA,-0.155
14,TAGGGCGA,-0.203
15,CAAGTCTA,-0.0671
16,TAATGAGA,0.232
17,CCTGGTCC,-0.173
18,CCTATTCG,0.00952
19,CGCGCAGC,-0.156
20,CTCTGATA,0.112
21,ACTCGGTA,0.0367
22,AAGATCAG,-0.225
